{"source": "paper PMC9911399", "about": "“Two distinct binding modes provide the RNA-binding protein RbFox with extraordinary sequence specificity”", "binders": {"B1": {"name": "CUGUAUG (DNA:RNA)", "RNA": "GGGAGACCGGAAUUCAGAUUGUCCCUGUAUGUUAAAUCCCGUCGUAGCCACCA", "DNA 1": "CAATCTGAATTCCGGTCTCCC", "DNA 2": "TGGTGGCTACGACGGGATT"}, "B2": {"name": "UGCUAGA (DNA:RNA)", "RNA": "B1 RNA with C25U, U26G, G27C, U30G, G31A", "DNA 1": "CAATCTGAATTCCGGTCTCCC", "DNA 2": "TGGTGGCTACGACGGGATT"}, "B3": {"name": "UGAGAGG (DNA:RNA)", "RNA": "B1 RNA with C25U, U26G, G27A, U28G, U30G", "DNA 1": "CAATCTGAATTCCGGTCTCCC", "DNA 2": "TGGTGGCTACGACGGGATT"}, "B4": {"name": "AAUCGCC (DNA:RNA)", "RNA": "GGGAGACCGGAAUUCAGAUUGUCCAAUCGCCUUAAAUCCCGUCGUAGCCACCA", "DNA 1": "CAATCTGAATTCCGGTCTCCC", "DNA 2": "TGGTGGCTACGACGGGATT"}, "B5": {"name": "CCGCCAU (DNA:RNA)", "RNA": "B1 RNA with U26C, U28C, A29C, U30A, G31U", "DNA 1": "CAATCTGAATTCCGGTCTCCC", "DNA 2": "TGGTGGCTACGACGGGATT"}, "B6": {"name": "AUUGAUU (DNA:RNA)", "RNA": "B1 RNA with C25A, G27U, U28G, G31U", "DNA 1": "CAATCTGAATTCCGGTCTCCC", "DNA 2": "TGGTGGCTACGACGGGATT"}, "B7": {"name": "AGGUGCU (DNA:RNA)", "RNA": "B4 RNA with A26G, U27G, C28U, C31U", "DNA 1": "CAATCTGAATTCCGGTCTCCC", "DNA 2": "TGGTGGCTACGACGGGATT"}, "B8": {"name": "AGACCAU (DNA:RNA)", "RNA": "B4 RNA with A26G, U27A, G29C, C30A, C31U", "DNA 1": "CAATCTGAATTCCGGTCTCCC", "DNA 2": "TGGTGGCTACGACGGGATT"}, "B9": {"name": "GCCUAAC (DNA:RNA)", "RNA": "B1 RNA with C25G, U26C, G27C, U30A, G31C", "DNA 1": "CAATCTGAATTCCGGTCTCCC", "DNA 2": "TGGTGGCTACGACGGGATT"}, "B10": {"name": "AACACGG (DNA:RNA)", "RNA": "B4 RNA with U27C, C28A, G29C, C30G, C31G", "DNA 1": "CAATCTGAATTCCGGTCTCCC", "DNA 2": "TGGTGGCTACGACGGGATT"}, "B11": {"name": "GUUGAAU (DNA:RNA)", "RNA": "B1 RNA with C25G, G27U, U28G, U30A, G31U", "DNA 1": "CAATCTGAATTCCGGTCTCCC", "DNA 2": "TGGTGGCTACGACGGGATT"}, "B12": {"name": "AAGUAGG (DNA:RNA)", "RNA": "B1 RNA with C25A, U26A, U30G", "DNA 1": "CAATCTGAATTCCGGTCTCCC", "DNA 2": "TGGTGGCTACGACGGGATT"}, "B13": {"name": "UUCAUGC (DNA:RNA)", "RNA": "B4 RNA with A25U, A26U, U27C, C28A, G29U, C30G", "DNA 1": "CAATCTGAATTCCGGTCTCCC", "DNA 2": "TGGTGGCTACGACGGGATT"}, "B14": {"name": "GACCCAC (DNA:RNA)", "RNA": "B4 RNA with A25G, U27C, G29C, C30A", "DNA 1": "CAATCTGAATTCCGGTCTCCC", "DNA 2": "TGGTGGCTACGACGGGATT"}, "B15": {"name": "UUCCCUU (DNA:RNA)", "RNA": "B1 RNA with C25U, G27C, U28C, A29C, G31U", "DNA 1": "CAATCTGAATTCCGGTCTCCC", "DNA 2": "TGGTGGCTACGACGGGATT"}, "B16": {"name": "AUAAGAA (DNA:RNA)", "RNA": "B4 RNA with A26U, U27A, C28A, C30A, C31A", "DNA 1": "CAATCTGAATTCCGGTCTCCC", "DNA 2": "TGGTGGCTACGACGGGATT"}, "B17": {"name": "UACCAUC (DNA:RNA)", "RNA": "B4 RNA with A25U, U27C, G29A, C30U", "DNA 1": "CAATCTGAATTCCGGTCTCCC", "DNA 2": "TGGTGGCTACGACGGGATT"}, "B18": {"name": "AGUUGGC (DNA:RNA)", "RNA": "B4 RNA with A26G, C28U, C30G", "DNA 1": "CAATCTGAATTCCGGTCTCCC", "DNA 2": "TGGTGGCTACGACGGGATT"}, "B19": {"name": "CGAAAGA (DNA:RNA)", "RNA": "B1 RNA with U26G, G27A, U28A, U30G, G31A", "DNA 1": "CAATCTGAATTCCGGTCTCCC", "DNA 2": "TGGTGGCTACGACGGGATT"}, "B20": {"name": "CGGCUCU (DNA:RNA)", "RNA": "B4 RNA with A25C, A26G, U27G, G29U, C31U", "DNA 1": "CAATCTGAATTCCGGTCTCCC", "DNA 2": "TGGTGGCTACGACGGGATT"}}, "note": "Where a chain is given by its changes, count along the chain named. Some of the results follow."}
{"target": "T1, RBFOX1 RRM RbFoxmut (Fox-RRM*) (Homo sapiens, UniProt Q9NWB1 109-208, R118D;E147R;N151S;E152T)", "T1 sequence": "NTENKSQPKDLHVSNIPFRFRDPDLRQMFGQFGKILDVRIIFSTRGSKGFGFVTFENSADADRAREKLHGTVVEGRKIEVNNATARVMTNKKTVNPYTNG", "assay": "EMSA; HiTS-Eq, 1 nM pool, 10 min; buffer printed only for the single-RNA assays: 10 mM Tris pH 7.5, 150 mM NaCl, 3.4 mM EDTA, 0.001% NP-40, 30 C", "conditions": "tags: His6 N-terminal (pET28a); label: 5' 32P", "in_short": "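Purified RbFox RRM, wild type or mutant, was incubated for 10 min in 50 µL with 1 nM of a 5′-radiolabelled RNA pool carrying 7 randomized nucleotides, whose flanks were annealed to DNA oligonucleotides, over a series of increasing protein concentrations. Unbound RNA was resolved on 8% native PAGE, cut out, reverse-transcribed, barcoded by PCR and sequenced on an Illumina HiSeq 2500. Relative association constants were derived from changes in read counts for each RNA species versus the control reaction and normalised to the cognate motif.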"}
{"binder": "B1", "binding signal": "1.11 KA relative to UGCAUGU"}
{"binder": "B2", "binding signal": "0.134 KA relative to UGCAUGU"}
{"binder": "B3", "binding signal": "0.0738 KA relative to UGCAUGU"}
{"binder": "B4", "binding signal": "0.0888 KA relative to UGCAUGU"}
{"binder": "B5", "binding signal": "0.0952 KA relative to UGCAUGU"}
{"binder": "B6", "binding signal": "0.103 KA relative to UGCAUGU"}
{"binder": "B7", "binding signal": "0.0923 KA relative to UGCAUGU"}
{"binder": "B8", "binding signal": "0.0658 KA relative to UGCAUGU"}
{"binder": "B9", "binding signal": "0.0572 KA relative to UGCAUGU"}
{"binder": "B10", "binding signal": "0.0833 KA relative to UGCAUGU"}
{"binder": "B11", "binding signal": "0.125 KA relative to UGCAUGU"}
{"binder": "B12", "binding signal": "0.113 KA relative to UGCAUGU"}
{"binder": "B13", "binding signal": "0.13 KA relative to UGCAUGU"}
{"binder": "B14", "binding signal": "0.0725 KA relative to UGCAUGU"}
{"binder": "B15", "binding signal": "0.064 KA relative to UGCAUGU"}
{"binder": "B16", "binding signal": "0.103 KA relative to UGCAUGU"}
{"binder": "B17", "binding signal": "0.0736 KA relative to UGCAUGU"}
{"binder": "B18", "binding signal": "0.107 KA relative to UGCAUGU"}
{"binder": "B19", "binding signal": "0.0791 KA relative to UGCAUGU"}
{"binder": "B20", "binding signal": "0.0931 KA relative to UGCAUGU"}
